# The BET-seq Pho4 binding data (Le et al. 2018)
# This is one part of the list. Values were computed here from the reads of four pooled replicates and scatter widely.
# Target: T1, Pho4 (S. cerevisiae) (UniProt P07270)
# T1 sequence: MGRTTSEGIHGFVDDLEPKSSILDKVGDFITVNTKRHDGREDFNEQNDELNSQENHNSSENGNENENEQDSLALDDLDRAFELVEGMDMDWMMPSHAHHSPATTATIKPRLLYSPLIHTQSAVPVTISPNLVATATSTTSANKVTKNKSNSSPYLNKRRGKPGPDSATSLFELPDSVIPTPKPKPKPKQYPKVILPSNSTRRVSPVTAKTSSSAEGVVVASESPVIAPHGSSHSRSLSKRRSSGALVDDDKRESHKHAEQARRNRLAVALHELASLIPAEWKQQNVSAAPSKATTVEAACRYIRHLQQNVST
# Test: relative binding free energy (BET-seq); higher = weaker binding
# Details: reference: library average
row,Sequence,relative binding free energy
1,TTCGGCACGTGCGATT,0.03 kcal/mol
2,TTTGTCACGTGCGAGG,0.14 kcal/mol
3,TATTGCACGTGTCATT,-0.15 kcal/mol
4,TTAAGCACGTGGTTCA,-0.15 kcal/mol
5,GTATGCACGTGTAATG,0.13 kcal/mol
6,GGCGGCACGTGTGTCG,-0.06 kcal/mol
7,CATGTCACGTGCGGTT,0.06 kcal/mol
8,TCTAGCACGTGAGGGT,0.01 kcal/mol
9,ATTTCCACGTGTGCGT,0.16 kcal/mol
10,TGGTACACGTGTAAAG,0.31 kcal/mol
11,GTGATCACGTGCTAGT,0.01 kcal/mol
12,CATGGCACGTGTGAAT,0 kcal/mol
13,ACCTTCACGTGTGGGT,0.21 kcal/mol
14,GTAGGCACGTGGGCGA,-0.25 kcal/mol
15,CATGGCACGTGTTCGG,-0.07 kcal/mol
16,TATAGCACGTGTTTGG,-0.18 kcal/mol
17,ATTTCCACGTGGGGGG,-0.11 kcal/mol
18,CGGTCCACGTGGTGTT,-0.01 kcal/mol
19,AGTCTCACGTGTGTAT,0.16 kcal/mol
20,AGGGGCACGTGTTGAA,-0.09 kcal/mol
21,TGGGTCACGTGCGGCC,0.1 kcal/mol
22,GGGTACACGTGGGAAT,0.13 kcal/mol
23,ATAGTCACGTGGTTAA,0.01 kcal/mol
24,ATTTCCACGTGTGAGG,0.07 kcal/mol
25,GAGTTCACGTGTGTTA,0.29 kcal/mol
26,TAAGACACGTGGGCTG,-0.16 kcal/mol

row,Sequence,relative binding free energy
1,ATGGGCACGTGAGGTA,0.08 kcal/mol
2,TGGTACACGTGCGGCT,0.01 kcal/mol
3,TGAGTCACGTGAGCTG,0.27 kcal/mol
4,GGGTGCACGTGAATAT,0.38 kcal/mol
5,AGTGCCACGTGGTTTT,-0.2 kcal/mol
6,TGCTGCACGTGTGTAG,0.02 kcal/mol
7,AAATGCACGTGGGCAT,-0.02 kcal/mol
8,ATGGACACGTGGGTGA,-0.16 kcal/mol
9,TATACCACGTGTGTGG,-0.06 kcal/mol
10,TTGAGCACGTGCGGGC,-0.09 kcal/mol
11,ATTTGCACGTGAGTAG,0.16 kcal/mol
12,TGTATCACGTGATTCG,0.19 kcal/mol
13,ATAAGCACGTGGTGAT,-0.21 kcal/mol
14,TTATGCACGTGGGGTT,-0.17 kcal/mol
15,TGCTGCACGTGATGTT,0.1 kcal/mol
16,TGTCACACGTGTTAAG,0.06 kcal/mol
17,CAGTGCACGTGGGGAA,-0.24 kcal/mol
18,GAGATCACGTGGTATT,0.14 kcal/mol
19,CGAGACACGTGGGGTG,-0.15 kcal/mol
20,TTTTCCACGTGGTTTT,0.06 kcal/mol
21,AATGGCACGTGGATAG,-0.12 kcal/mol
22,CGTATCACGTGTTGTA,0.14 kcal/mol
23,ATCGGCACGTGGTGAT,-0.23 kcal/mol
24,GTGTACACGTGAGGTT,0.24 kcal/mol
25,AGGCGCACGTGAGGAG,0.13 kcal/mol
26,GAGATCACGTGGGAGT,0.16 kcal/mol

row,Sequence,relative binding free energy
1,TCATACACGTGTTTTG,0.1 kcal/mol
2,CTTTGCACGTGTGTGT,0.11 kcal/mol
3,AGCGGCACGTGTTGCG,-0.15 kcal/mol
4,AATTTCACGTGGTATA,0.28 kcal/mol
5,CTTCACACGTGGGGGT,-0.02 kcal/mol
6,TTGCACACGTGGGGCA,-0.01 kcal/mol
7,TTATTCACGTGTAGAG,0.27 kcal/mol
8,GGGGGCACGTGTAGGG,-0.15 kcal/mol
9,TGTTTCACGTGGACGC,0.34 kcal/mol
10,ATGTGCACGTGTTCTT,-0.01 kcal/mol
11,CATGGCACGTGGTAAG,-0.09 kcal/mol
12,ATTGACACGTGAGCGT,0.02 kcal/mol
13,AATGTCACGTGAGGAG,0.21 kcal/mol
14,GAAAACACGTGTTGTT,0.03 kcal/mol
15,TTTGGCACGTGTAGGT,0.06 kcal/mol
16,AGAGTCACGTGTGTCT,0.08 kcal/mol
17,TATATCACGTGCGATT,0.14 kcal/mol
18,GTAGGCACGTGTGTCT,-0.09 kcal/mol
19,GACGCCACGTGTGGGG,-0.05 kcal/mol
20,TGTATCACGTGGATAT,0.09 kcal/mol
21,TGGGTCACGTGACTAG,0.24 kcal/mol
22,GCAGGCACGTGGTTAT,-0.16 kcal/mol
23,GTTTTCACGTGGAAGT,0.28 kcal/mol
24,TTAATCACGTGACGGG,0.25 kcal/mol
25,GTCGGCACGTGGGGGC,-0.25 kcal/mol
26,GTTCGCACGTGTTAAG,0.1 kcal/mol

row,Sequence,relative binding free energy
1,GGTCGCACGTGGAGGT,0.01 kcal/mol
2,ATTATCACGTGGATTT,0.17 kcal/mol
3,AGAAGCACGTGTGATT,0.15 kcal/mol
4,ACGTACACGTGGTTTG,0.05 kcal/mol
5,CGCTGCACGTGGCTGG,-0.04 kcal/mol
6,AAGTGCACGTGCTGGC,-0.07 kcal/mol
7,GCTGGCACGTGAGTTG,0.2 kcal/mol
8,TGGGTCACGTGAATCT,0.37 kcal/mol
9,CTGTACACGTGTTGTG,0.09 kcal/mol
10,TCATTCACGTGTAAGT,0.32 kcal/mol
11,GGTTCCACGTGTATGT,0.05 kcal/mol
12,TCGTTCACGTGGGAGG,0.15 kcal/mol
13,AATCTCACGTGGTTTT,0.27 kcal/mol
14,GGGATCACGTGGTGTA,0.2 kcal/mol
15,TTTTACACGTGTAGCG,0.15 kcal/mol
16,GGATTCACGTGATTGA,0.29 kcal/mol
17,TAATTCACGTGGAGTG,0.18 kcal/mol
18,TGGGGCACGTGCTGGC,-0.17 kcal/mol
19,TGTCTCACGTGGCATG,0.13 kcal/mol
20,TCCGGCACGTGGGGAT,-0.13 kcal/mol
21,TCGGGCACGTGATGTA,0 kcal/mol
22,TTAGTCACGTGTTTAG,0.08 kcal/mol
23,AATTTCACGTGTTGAA,0.26 kcal/mol
24,TTGTTCACGTGTGAAT,0.43 kcal/mol
25,GGTATCACGTGGGGAT,0.07 kcal/mol
26,TTTAGCACGTGGTGTT,-0.12 kcal/mol

row,Sequence,relative binding free energy
1,GGTGTCACGTGGTTGG,0.11 kcal/mol
2,TTGGTCACGTGACGCG,0.15 kcal/mol
3,GTGTTCACGTGATGCC,0.44 kcal/mol
4,GTTGTCACGTGGAGGG,0.1 kcal/mol
5,TTATCCACGTGGAAGG,0.15 kcal/mol
6,GTCGGCACGTGAGCGG,0.11 kcal/mol
7,GCATTCACGTGGCGTG,0.29 kcal/mol
8,TATGGCACGTGTATGT,-0.09 kcal/mol
9,GGTGTCACGTGAAGAA,0.14 kcal/mol
10,CCGGTCACGTGTGGAT,0.17 kcal/mol
11,ATGATCACGTGGTGCA,-0.04 kcal/mol
12,GATGGCACGTGTGCGG,0.06 kcal/mol
13,TGCGACACGTGTTGGT,0.07 kcal/mol
14,ATTTACACGTGGAAGA,0.18 kcal/mol
15,GCGTTCACGTGGTTTC,0.36 kcal/mol
16,GAGTACACGTGGTGAA,0.11 kcal/mol
17,AATGACACGTGAAGTT,0.26 kcal/mol
18,CAGATCACGTGATGTG,0.22 kcal/mol
19,AAGTGCACGTGGGAAG,-0.06 kcal/mol
20,TTGCTCACGTGATATT,0.28 kcal/mol
21,GTGTGCACGTGGCGTG,-0.14 kcal/mol
22,ATGTTCACGTGGATCT,0.15 kcal/mol
23,ATTACCACGTGGTAAG,0.06 kcal/mol
24,ACGGGCACGTGATAGG,-0.05 kcal/mol
25,CGGGGCACGTGTGAGC,-0.09 kcal/mol
26,ATCTGCACGTGTTCGG,0.04 kcal/mol

row,Sequence,relative binding free energy
1,ATGTCCACGTGGGTAT,-0.08 kcal/mol
2,ACTGTCACGTGCATGT,0.11 kcal/mol
3,ATGGGCACGTGGGAAT,-0.09 kcal/mol
4,TTGAACACGTGTGTAA,0.03 kcal/mol
5,GGCCGCACGTGGTGAG,-0.09 kcal/mol
6,CCTGTCACGTGAGGGG,0.18 kcal/mol
7,AATAACACGTGTTGGG,-0.06 kcal/mol
8,CTAGGCACGTGGTCGG,-0.28 kcal/mol
9,ACGGGCACGTGTGGTG,-0.21 kcal/mol
10,CGAGTCACGTGTAAGT,0.31 kcal/mol
11,TTCTTCACGTGCAGGG,0.29 kcal/mol
12,TTCTTCACGTGTGGAA,0.34 kcal/mol
13,TCTGTCACGTGAATGG,0.35 kcal/mol
14,TATTTCACGTGGCGTC,0.26 kcal/mol
15,TGTCACACGTGTGGGG,0.03 kcal/mol
16,ATATGCACGTGCTGGT,-0.16 kcal/mol
17,AGTTTCACGTGTTGGA,0.36 kcal/mol
18,GGATACACGTGGATTG,-0.03 kcal/mol
19,TACTTCACGTGTGGGC,0.26 kcal/mol
20,AGTGCCACGTGATTTT,0.2 kcal/mol
21,TGTCTCACGTGATAGG,0.14 kcal/mol
22,GTCGACACGTGGTTTT,0.1 kcal/mol
23,TAGTTCACGTGTTATT,0.19 kcal/mol
24,AGCGGCACGTGAGTGC,0.19 kcal/mol
25,AGGGTCACGTGACGAT,0.24 kcal/mol
26,GGGGACACGTGTTTGC,0.06 kcal/mol

row,Sequence,relative binding free energy
1,TGTGTCACGTGGGCAG,-0.13 kcal/mol
2,GTGTACACGTGTGCGG,0.08 kcal/mol
3,AGTTGCACGTGGAGAG,0.04 kcal/mol
4,ACAGGCACGTGTTTTT,-0.08 kcal/mol
5,TGGCGCACGTGCGCGG,-0.37 kcal/mol
6,GGTCTCACGTGGGATA,0.23 kcal/mol
7,TTGGACACGTGGTATA,0.02 kcal/mol
8,GTTTTCACGTGTAAGC,0.33 kcal/mol
9,ATATTCACGTGGTTTC,0.04 kcal/mol
10,GGGCTCACGTGACGGT,0.33 kcal/mol
11,AGATTCACGTGCTTTG,0.37 kcal/mol
12,GCGGGCACGTGTCTGT,-0.1 kcal/mol
13,GCTGTCACGTGGTTGA,0.17 kcal/mol
14,GGAGTCACGTGTTTTC,0.21 kcal/mol
15,ATGCTCACGTGTGAGT,0.07 kcal/mol
16,TTTGGCACGTGCTGAG,-0.05 kcal/mol
17,AGTACCACGTGGTTAG,-0.17 kcal/mol
18,TTAGCCACGTGTGCGG,-0.15 kcal/mol
19,ATACTCACGTGATAGT,0.35 kcal/mol
20,CGGGTCACGTGGTGGG,0.12 kcal/mol
21,GTGTCCACGTGCAGGG,0 kcal/mol
22,GCTTGCACGTGTGAGC,0.29 kcal/mol
23,GAATACACGTGAGTGG,0.39 kcal/mol
24,GGTATCACGTGTCGTA,0.2 kcal/mol
25,AGTTGCACGTGCGGTA,-0.1 kcal/mol
26,GCTGCCACGTGGGTGG,-0.13 kcal/mol

row,Sequence,relative binding free energy
1,ATATACACGTGTGCTG,-0.07 kcal/mol
2,GTGCTCACGTGTTGGA,0.23 kcal/mol
3,AGTAGCACGTGTGGCG,-0.02 kcal/mol
4,GGGTACACGTGTCGGG,0.17 kcal/mol
5,GTTGGCACGTGGTCAG,-0.24 kcal/mol
6,GGTTTCACGTGTGATC,0.33 kcal/mol
7,TTGTTCACGTGTGGGG,0.35 kcal/mol
8,GTAGGCACGTGAGCGG,0.17 kcal/mol
9,TTGTGCACGTGAAGTA,0.28 kcal/mol
10,GGAGTCACGTGTTTCG,0.02 kcal/mol
11,GGGGGCACGTGAGACA,0.16 kcal/mol
12,GTAGTCACGTGTGTGA,0.05 kcal/mol
13,AGGGCCACGTGGTGTA,-0.17 kcal/mol
14,GCTTTCACGTGAGTGG,0.33 kcal/mol
15,TAAGGCACGTGCGTAT,-0.24 kcal/mol
16,GTCGTCACGTGTTCGG,0.19 kcal/mol
17,GTCAACACGTGGGGGA,-0.13 kcal/mol
18,GCCGGCACGTGCGGTG,-0.12 kcal/mol
19,ATGGGCACGTGCCTTG,-0.15 kcal/mol
20,TCTTGCACGTGGAAAT,0.2 kcal/mol
21,TTATGCACGTGGTTAG,-0.1 kcal/mol
22,TTAGGCACGTGACGTT,-0.08 kcal/mol
23,GTGTTCACGTGGTGCG,0.29 kcal/mol
24,ATTGGCACGTGACGTG,-0.08 kcal/mol
25,TGTACCACGTGGGGTC,-0.24 kcal/mol
26,ACGTGCACGTGGTAAG,-0.11 kcal/mol

row,Sequence,relative binding free energy
1,ACTTGCACGTGAAAGT,0.24 kcal/mol
2,GGTGTCACGTGATAGC,0.19 kcal/mol
3,TGACGCACGTGCATGG,-0.07 kcal/mol
4,TGAATCACGTGATGCT,0.22 kcal/mol
5,TTGTACACGTGAGGAT,0.21 kcal/mol
6,ATAGGCACGTGAAGTG,0.14 kcal/mol
7,GAAGTCACGTGTGCGC,0.33 kcal/mol
8,TGTTGCACGTGGCTAG,0 kcal/mol
9,TGGTGCACGTGGGGTT,-0.13 kcal/mol
10,ATGGGCACGTGATGTT,0.11 kcal/mol
11,GGGGGCACGTGAGAGC,0.11 kcal/mol
12,GGTTACACGTGATGTG,0.16 kcal/mol
13,GTAAGCACGTGGGTGT,-0.18 kcal/mol
14,GCGAGCACGTGTGGCG,-0.01 kcal/mol
15,TTGCGCACGTGGGTCT,-0.24 kcal/mol
16,TGGTCCACGTGTCTTT,0.03 kcal/mol
17,GGGATCACGTGATATG,0.32 kcal/mol
18,GTGGGCACGTGTCTGC,-0.1 kcal/mol
19,GGCGTCACGTGGGCGC,-0.08 kcal/mol
20,TTTAGCACGTGCGTCG,-0.18 kcal/mol
21,ATTGGCACGTGGGGAC,-0.26 kcal/mol
22,AGTGACACGTGGGGTA,-0.19 kcal/mol
